Consider 44 compounds from PMC4336329 (PLoS ONE, 2015).

The whole screen tested about 310,000 compounds, of which about 2,200 (0.71%) showed an effect of 50% or more. Effects have a minus sign here. Some of the results follow.

For this experiment, the target named is human ether-à-go-go-related gene (hERG) potassium channel (human, UniProt Q12809). The experiment in a line: primary screen, population patch clamp on CHO cells stably expressing hERG.
Chain of human ether-à-go-go-related gene (hERG) potassium channel (Q12809 whole entry, looked up): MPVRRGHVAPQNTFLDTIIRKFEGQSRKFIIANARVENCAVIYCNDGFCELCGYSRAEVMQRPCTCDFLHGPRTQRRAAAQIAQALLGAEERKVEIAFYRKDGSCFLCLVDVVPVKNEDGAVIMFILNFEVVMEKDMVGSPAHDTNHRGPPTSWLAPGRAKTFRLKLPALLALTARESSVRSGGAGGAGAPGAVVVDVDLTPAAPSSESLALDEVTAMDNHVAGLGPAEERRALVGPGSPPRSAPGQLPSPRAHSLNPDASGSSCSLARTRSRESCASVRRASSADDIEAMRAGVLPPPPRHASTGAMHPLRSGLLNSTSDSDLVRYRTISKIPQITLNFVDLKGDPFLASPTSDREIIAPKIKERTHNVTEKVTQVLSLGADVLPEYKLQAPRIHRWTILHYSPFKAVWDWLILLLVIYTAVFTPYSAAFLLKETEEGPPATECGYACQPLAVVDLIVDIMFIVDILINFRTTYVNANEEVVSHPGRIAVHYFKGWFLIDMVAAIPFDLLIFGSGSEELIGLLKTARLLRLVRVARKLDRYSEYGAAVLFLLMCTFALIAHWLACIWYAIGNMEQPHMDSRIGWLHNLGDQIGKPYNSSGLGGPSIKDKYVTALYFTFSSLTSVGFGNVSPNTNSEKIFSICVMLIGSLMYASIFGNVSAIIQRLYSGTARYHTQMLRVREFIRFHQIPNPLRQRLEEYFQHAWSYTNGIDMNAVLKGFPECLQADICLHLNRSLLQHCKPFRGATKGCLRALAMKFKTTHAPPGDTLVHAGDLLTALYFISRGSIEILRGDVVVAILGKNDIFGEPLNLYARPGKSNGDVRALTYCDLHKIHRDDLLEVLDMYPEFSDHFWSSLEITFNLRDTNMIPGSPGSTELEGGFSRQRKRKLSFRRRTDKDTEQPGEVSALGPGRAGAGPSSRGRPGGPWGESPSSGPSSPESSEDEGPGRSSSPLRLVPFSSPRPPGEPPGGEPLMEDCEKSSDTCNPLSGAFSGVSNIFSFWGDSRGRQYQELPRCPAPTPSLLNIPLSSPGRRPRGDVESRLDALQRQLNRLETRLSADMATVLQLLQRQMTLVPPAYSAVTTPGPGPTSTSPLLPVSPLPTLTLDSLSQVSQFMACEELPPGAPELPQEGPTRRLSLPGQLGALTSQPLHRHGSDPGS
As to `NC(=O)c1nsc(C(=O)N(CC(=O)NC2CCCC2)c2cnc3ccccc3c2)c1N`, the “hERG current change (%, negative = inhibition) at 1uM” value is on record as 4.62%. `CCN1C(=O)/C(=C/c2cccs2)N(C)C1=S`: the “hERG current change (%, negative = inhibition) at 1uM” value turned out to be 6.19%.

For `O=C(/C=C/c1cccnc1)c1ccc(NC(=O)c2cccc(Br)c2)cc1`, the “hERG current change (%, negative = inhibition) at 1uM” value was 8.9%. With `Cc1ccc(C(C)C)c(OCc2ccc(C(=O)N/N=C/c3ccc(C(=O)O)cc3)cc2)c1` the figure was 3.46%; with `O=C(Cn1cc([N+](=O)[O-])ccc1=O)NC1CCCCC1`, 8.69%; with `CCOc1cc(C(=O)NC(C)C2CCCO2)cc(OCC)c1OCC` (centres unmarked), 8.17%. With `O=C(Nc1nccs1)[C@@H]1CCCN1C(=O)c1cccs1` the figure was 1.24%; with `CC(=O)c1ccc(N2CCN(C(=O)CCCn3c(=S)[nH]c4cc5c(cc4c3=O)OCO5)CC2)cc1`, 3.8%; with `CCOc1ccc(Nc2oc(-c3ccccc3Cl)nc2C#N)cc1`, 10.3%. With `CC(OC(=O)CN1C(=O)c2ccccc2C1=O)C(=O)NC1(C#N)CCCCC1` (centres unmarked) the figure was 8.34%; with `CC(NC(=O)CN1C(=O)NC2(CCc3ccccc32)C1=O)c1ccc2c(c1)OCCO2` (centres unmarked), 12.9%; with `CC1(C)CSC(=NCc2ccccc2)N1C(=O)c1cccc([N+](=O)[O-])c1`, 7.16%.

For `O=c1c2nccnc2[nH]c(=S)n1Cc1ccccc1Cl`, the “hERG current change (%, negative = inhibition) at 1uM” value was 10.6%. With `C/C(=N\N=C1\NC(=O)C(CC(=O)O)S1)c1ccccn1` (centres unmarked) the figure was 9.48%. With `CC1CCCN(C(=O)C2COc3ccccc3O2)C1` (centres unmarked) the figure was 11.5%. As for `COc1cc(C(=O)O)cc(Br)c1OC1CCCC1`, the “hERG current change (%, negative = inhibition) at 1uM” value was 23.4%. Then `Cl.ClCC1=Nc2cccc3cccc(c23)N1`, with 7.46%; and `O=[N+]([O-])c1ccc(Nc2nc(NCCO)nc(N3CCCC3)n2)cc1`, with -7.05%; and `COc1ccc(N(C)S(=O)(=O)c2cccc(C(=O)OC(C(=O)Nc3cc(C)cc(C)c3)c3ccccc3)c2)cc1` (centres unmarked), with 15.6%. Then `O=C(CN1CCCCC1)Nc1nc(-c2ccc(F)c(F)c2)cs1`, with -11.8%; and `O=C(Nc1nnc(S(=O)(=O)N2CCCCC2)s1)c1ccccc1Br`, with 12.1%. Then `COc1ccc(NC(=O)C(c2ccc(OC)cc2)N(Cc2ccco2)C(=O)CC2NC(=O)NC2=O)cc1` (centres unmarked), with 9.67%; and `CCN(CC(=O)Nc1c(F)cccc1F)C(=O)CCc1ccc(OC)cc1`, with 20.2%; and `CN(Cc1ccon1)C(=O)CC1C(=O)NCCN1Cc1cccc(F)c1F` (centres unmarked), with -1.6%. Regarding `CCOC(=O)c1sc(NC(=O)Nc2ccc(Cl)cc2)cc1C`, the “hERG current change (%, negative = inhibition) at 1uM” value came out at 7.2%. With `COc1ccc(C2C(C(=O)O)CC(=O)N2c2ccc(OC)cc2)cc1` (centres unmarked) the figure was 11.4%. For the compound `CCSc1nc(C)c(CC)c(C)c1C(N)=O`, the “hERG current change (%, negative = inhibition) at 1uM” value was 10.4%. Then `Cc1ncsc1C(=O)Nc1cccc(C(F)(F)F)c1`, with 9.09%.

Regarding `O=c1[nH]c(-c2ccc(O)cc2)nc2scc(-c3cccs3)c12`, the “hERG current change (%, negative = inhibition) at 1uM” value amounted to 15.9%. Then `NC(=O)NC(CC(=O)NCCc1ccc(S(N)(=O)=O)cc1)c1ccccc1Cl` (centres unmarked), with 7.63%; and `Cc1c(NS(=O)(=O)c2ccc(NCCN3CCOCC3)c([N+](=O)[O-])c2)c(=O)n(-c2ccccc2)n1C`, with 12.7%. Then `Cc1cccc(C(=O)Nc2cc(=O)n(C)c(=O)n2C)c1`, with 10.8%. With `COc1cc(-c2n[nH]c(=S)n2/N=C/c2cccn2C)cc(OC)c1OC` the figure was 2.77%.

As to `O=C(NCCSc1ccccc1)c1cncc(Br)c1`, the “hERG current change (%, negative = inhibition) at 1uM” value turned out to be 9.91%.

Regarding `O=C(CN(Cc1ccccc1Cl)C(=O)c1csnn1)NCc1ccccc1`, the “hERG current change (%, negative = inhibition) at 1uM” value is -5.55%. Then `C[C@H](NC(=O)c1ccccc1)C(=O)N1CCN(c2ccccc2)CC1`, with 9.73%; and `C=C1C(=O)[C@@]23[C@H](O)C[C@@H]4C(C)(C)CC[C@H](O)[C@@]4(C)[C@@H]2CC[C@@H]1[C@H]3O`, with 7.44%; and `Cc1cccc(NC(=O)Nc2cccc(C#N)c2)n1`, with 9.99%. With `CC(=O)N1CCc2cc(S(=O)(=O)NC(CC(C)C)C(=O)Nc3cc(C)ccn3)ccc21` (centres unmarked) the figure was 15.2%; with `Cc1noc(C)c1C(=O)Nc1ccc(C#N)cc1`, 14.3%. Then `CCOC(=O)c1ccc(N=Nc2c(C)c(C#N)c(O)[nH]c2=O)cc1`, with 14.1%; and `O=C1c2ccccc2S(=O)(=O)N1CC1CC(c2ccccc2Cl)=NO1` (centres unmarked), with 13.2%; and `Cc1c(OCC(=O)NCc2ccncc2)ccc2c3c(c(=O)oc12)CCC3`, with 12%. For `O=C(CSc1nc2ccccc2o1)N1c2ccccc2Sc2ccccc21`, the “hERG current change (%, negative = inhibition) at 1uM” value is given as 1.91%.
